In the supplement of paper PMC8728848:
The list shows a part of the results.

Tests used:
Assay in all cases: glycan array binding signal (z-score within array); higher = stronger binding
Details in all cases: glycan notation: IUPAC condensed, linker removed
[1] = target: GlcNAc(b1-4)GlcNAc(b1-4)GlcNAc(b1-4)GlcNAc(b1-4)GlcNAc(b1-4)GlcNAc
Outline: (§1)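 Columns mapping to the same glycan were averaged after glycan names were converted to IUPAC-condensed notation. The data come from 3228 arrays in the Consortium for Functional Glycomics database, limited to those with an available protein sequence. Binding is reported as a within-array Z-score averaged across arrays of one protein sequence and across linkers.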

[2] = target: GlcNAc(b1-4)[GlcNAc(b1-6)]GalNAc
Outline: as §1

[3] = target: GlcNAc(b1-6)Gal(b1-4)GlcNAc
Outline: as §1

[4] = target: GlcNAc(b1-6)GalNAc
Outline: as §1

[5] = target: Kdn(a2-3)Gal(b1-3)GlcNAc
Outline: as §1

[6] = target: Kdn(a2-3)Gal(b1-4)GlcNAc
Outline: as §1

[7] = target: Man(a1-2)Man(a1-2)Man(a1-3)Man
Outline: as §1

[8] = target: Man(a1-2)Man(a1-2)Man(a1-3)[Man(a1-2)Man(a1-3)[Man(a1-2)Man(a1-6)]Man(a1-6)]Man(b1-4)GlcNAc(b1-4)GlcNAc
Outline: as §1

[9] = target: Man(a1-2)Man(a1-2)Man(a1-3)[Man(a1-2)Man(a1-6)[Man(a1-3)]Man(a1-6)]Man(b1-4)GlcNAc(b1-4)GlcNAc
Outline: as §1

[10] = target: Man(a1-2)Man(a1-2)Man(a1-6)[Man(a1-3)]Man
Outline: as §1

[11] = target: Man(a1-2)Man(a1-3)Man
Outline: as §1

[12] = target: Man(a1-2)Man(a1-3)[Man(a1-2)Man(a1-6)]Man
Outline: as §1

[13] = target: Man(a1-2)Man(a1-3)[Man(a1-3)[Man(a1-6)]Man(a1-6)]Man(b1-4)GlcNAc(b1-4)GlcNAc
Outline: as §1

[14] = target: Man(a1-2)Man(a1-3)[Man(a1-6)]Man(a1-6)[Man(a1-2)Man(a1-3)]Man(b1-4)GlcNAc(b1-4)GlcNAc
Outline: as §1

[15] = target: Man(a1-3)[Man(a1-6)]Man
Outline: as §1

[16] = target: Man(a1-3)[Man(a1-6)]Man(a1-6)[Man(a1-3)]Man(b1-4)GlcNAc(b1-4)GlcNAc
Outline: as §1

[17] = target: Man(a1-3)[Man(a1-6)]Man(b1-4)GlcNAc(b1-4)GlcNAc
Outline: as §1

[18] = target: Man(b1-4)GlcNAc
Outline: as §1

[19] = target: Neu5Ac(a2-3)Gal
Outline: as §1

[20] = target: Neu5Ac(a2-3)Gal(b1-3)GalNAc
Outline: as §1

[21] = target: Neu5Ac(a2-3)Gal(b1-3)GalNAc(b1-3)Gal(a1-4)Gal(b1-4)Glc
Outline: as §1

[22] = target: Neu5Ac(a2-3)Gal(b1-3)GalNAc(b1-4)[Neu5Ac(a2-3)]Gal(b1-4)Glc
Outline: as §1

[23] = target: Neu5Ac(a2-3)Gal(b1-3)GalNAc6S
Outline: as §1

[24] = target: Neu5Ac(a2-3)Gal(b1-3)GlcNAc
Outline: as §1

[25] = target: Neu5Ac(a2-3)Gal(b1-3)GlcNAc(b1-3)Gal(b1-3)GlcNAc
Outline: as §1

[26] = target: Neu5Ac(a2-3)Gal(b1-3)GlcNAc(b1-3)Gal(b1-4)GlcNAc
Outline: as §1

[27] = target: Neu5Ac(a2-3)Gal(b1-3)GlcNAc6S
Outline: as §1

[28] = target: Neu5Ac(a2-3)Gal(b1-3)[Fuc(a1-4)]GlcNAc
Outline: as §1

[29] = target: Neu5Ac(a2-3)Gal(b1-3)[Fuc(a1-4)]GlcNAc(b1-3)Gal(b1-4)[Fuc(a1-3)]GlcNAc
Outline: as §1

[30] = target: Neu5Ac(a2-3)Gal(b1-3)[Neu5Ac(a2-3)Gal(b1-4)]GlcNAc
Outline: as §1

[31] = target: Neu5Ac(a2-3)Gal(b1-3)[Neu5Ac(a2-6)]GalNAc
Outline: as §1

[32] = target: Neu5Ac(a2-3)Gal(b1-4)Glc
Outline: as §1

[33] = target: Neu5Ac(a2-3)Gal(b1-4)GlcNAc
Outline: as §1

[34] = target: Neu5Ac(a2-3)Gal(b1-4)GlcNAc(b1-3)Gal(b1-3)GlcNAc
Outline: as §1

[35] = target: Neu5Ac(a2-3)Gal(b1-4)GlcNAc(b1-3)Gal(b1-4)GlcNAc
Outline: as §1

[36] = target: Neu5Ac(a2-3)Gal(b1-4)GlcNAc(b1-3)Gal(b1-4)GlcNAc(b1-3)Gal(b1-4)GlcNAc
Outline: as §1

[37] = target: Neu5Ac(a2-3)Gal(b1-4)GlcNAc(b1-3)Gal(b1-4)[Fuc(a1-3)]GlcNAc
Outline: as §1

[38] = target: Neu5Ac(a2-3)Gal(b1-4)GlcNAc(b1-6)[Gal(b1-3)]GalNAc
Outline: as §1

[39] = target: Neu5Ac(a2-3)Gal(b1-4)GlcNAc6S
Outline: as §1

[40] = target: Neu5Ac(a2-3)Gal(b1-4)[Fuc(a1-3)]GlcNAc
Outline: as §1

[41] = target: Neu5Ac(a2-3)Gal(b1-4)[Fuc(a1-3)]GlcNAc(b1-3)Gal
Outline: as §1

[42] = target: Neu5Ac(a2-3)Gal(b1-4)[Fuc(a1-3)]GlcNAc(b1-3)Gal(b1-4)GlcNAc
Outline: as §1

[43] = target: Neu5Ac(a2-3)Gal(b1-4)[Fuc(a1-3)]GlcNAc(b1-3)Gal(b1-4)[Fuc(a1-3)]GlcNAc(b1-3)Gal(b1-4)[Fuc(a1-3)]GlcNAc
Outline: as §1

[44] = target: Neu5Ac(a2-3)Gal(b1-4)[Fuc(a1-3)]GlcNAc6S
Outline: as §1

[45] = target: Neu5Ac(a2-3)Gal6S(b1-4)GlcNAc
Outline: as §1

[46] = target: Neu5Ac(a2-3)Gal6S(b1-4)[Fuc(a1-3)]GlcNAc
Outline: as §1

[47] = target: Neu5Ac(a2-3)GalNAc
Outline: as §1

[48] = target: Neu5Ac(a2-3)GalNAc(b1-4)GlcNAc
Outline: as §1

[49] = target: Neu5Ac(a2-3)[GalNAc(b1-4)]Gal(b1-4)Glc
Outline: as §1

[50] = target: Neu5Ac(a2-3)[GalNAc(b1-4)]Gal(b1-4)GlcNAc
Outline: as §1

[51] = target: Neu5Ac(a2-3)[Neu5Ac(a2-6)]GalNAc
Outline: as §1

[52] = target: Neu5Ac(a2-6)Gal(b1-4)GlcNAc
Outline: as §1

[53] = target: Neu5Ac(a2-6)Gal(b1-4)GlcNAc(b1-2)Man(a1-3)[Neu5Ac(a2-6)Gal(b1-4)GlcNAc(b1-2)Man(a1-6)]Man(b1-4)GlcNAc(b1-4)GlcNAc
Outline: as §1

[54] = target: Neu5Ac(a2-6)Gal(b1-4)GlcNAc(b1-3)Gal(b1-4)GlcNAc
Outline: as §1

[55] = target: Neu5Ac(a2-6)Gal(b1-4)GlcNAc(b1-3)Gal(b1-4)[Fuc(a1-3)]GlcNAc(b1-3)Gal(b1-4)[Fuc(a1-3)]GlcNAc
Outline: as §1

[56] = target: Neu5Ac(a2-6)Gal(b1-4)GlcNAc6S
Outline: as §1

[57] = target: Neu5Ac(a2-6)GalNAc
Outline: as §1

[58] = target: Neu5Ac(a2-6)GalNAc(b1-4)GlcNAc
Outline: as §1

[59] = target: Neu5Ac(a2-8)Neu5Ac
Outline: as §1

[60] = target: Neu5Ac(a2-8)Neu5Ac(a2-3)Gal(b1-4)Glc
Outline: as §1

[61] = target: Neu5Ac(a2-8)Neu5Ac(a2-3)[GalNAc(b1-4)]Gal(b1-4)Glc
Outline: as §1

[62] = target: Neu5Ac(a2-8)Neu5Ac(a2-8)Neu5Ac
Outline: as §1

[63] = target: Neu5Ac(a2-8)Neu5Ac(a2-8)Neu5Ac(a2-3)Gal(b1-4)Glc
Outline: as §1

[64] = target: Neu5Ac(a2-8)Neu5Ac(a2-8)Neu5Ac(a2-3)[GalNAc(b1-4)]Gal(b1-4)Glc
Outline: as §1

[65] = target: Neu5Ac(a2-8)Neu5Ac(a2-8)Neu5Ac(a2-8)Neu5Ac(a2-3)[GalNAc(b1-4)]Gal(b1-4)Glc
Outline: as §1

[66] = target: Neu5Ac9Ac(a2-6)Gal(b1-4)GlcNAc
Outline: as §1

[67] = target: Neu5Gc(a2-3)Gal(b1-3)GlcNAc
Outline: as §1

[68] = target: Neu5Gc(a2-3)Gal(b1-3)[Fuc(a1-4)]GlcNAc
Outline: as §1

[69] = target: Neu5Gc(a2-3)Gal(b1-4)Glc
Outline: as §1

[70] = target: Neu5Gc(a2-3)Gal(b1-4)GlcNAc
Outline: as §1

[71] = target: Neu5Gc(a2-3)Gal(b1-4)[Fuc(a1-4)]GlcNAc
Outline: as §1

[72] = target: Neu5Gc(a2-6)Gal(b1-4)GlcNAc
Outline: as §1

[73] = target: Neu5Gc(a2-6)GalNAc
Outline: as §1

B1: DC SIGN CRD (Homo sapiens), Q9NNX6 (protein)
chain: QPCPWEWTFFQGNCYFMSNSQRNWHDSITACKEVGAQLVVIKSAEEQNFLQLQSSRSNRFTWMGLSDLNQEGTWQWVDGSPLLPSFKQYWNRGEPNNVGEEDCAEFSGNGWNDDKCNLAKFWICKKSAWSHPQFEK
glycan array binding signal (z-score) [1]: -0.409
glycan array binding signal (z-score) [2]: -0.371
glycan array binding signal (z-score) [3]: -0.365
glycan array binding signal (z-score) [4]: -0.401
glycan array binding signal (z-score) [5]: -0.396
glycan array binding signal (z-score) [6]: -0.211
glycan array binding signal (z-score) [7]: 1.54
glycan array binding signal (z-score) [8]: 2.1
glycan array binding signal (z-score) [9]: 2.91
glycan array binding signal (z-score) [10]: 1.79
glycan array binding signal (z-score) [11]: 0.754
glycan array binding signal (z-score) [12]: 2.22
glycan array binding signal (z-score) [13]: 2.6
glycan array binding signal (z-score) [14]: 1.74
glycan array binding signal (z-score) [15]: 0.693
glycan array binding signal (z-score) [16]: 0.332
glycan array binding signal (z-score) [17]: -0.336
glycan array binding signal (z-score) [18]: -0.275
glycan array binding signal (z-score) [19]: -0.339
glycan array binding signal (z-score) [20]: -0.376
glycan array binding signal (z-score) [21]: -0.359
glycan array binding signal (z-score) [22]: -0.384
glycan array binding signal (z-score) [23]: -0.379
glycan array binding signal (z-score) [24]: -0.334
glycan array binding signal (z-score) [25]: -0.28
glycan array binding signal (z-score) [26]: -0.302
glycan array binding signal (z-score) [27]: -0.406
glycan array binding signal (z-score) [28]: -0.076
glycan array binding signal (z-score) [29]: 0.181
glycan array binding signal (z-score) [30]: -0.384
glycan array binding signal (z-score) [31]: -0.378
glycan array binding signal (z-score) [32]: -0.386
glycan array binding signal (z-score) [33]: -0.387
glycan array binding signal (z-score) [34]: -0.36
glycan array binding signal (z-score) [35]: -0.383
glycan array binding signal (z-score) [36]: -0.389
glycan array binding signal (z-score) [37]: -0.369
glycan array binding signal (z-score) [38]: -0.381
glycan array binding signal (z-score) [39]: -0.274
glycan array binding signal (z-score) [40]: -0.361
glycan array binding signal (z-score) [41]: -0.378
glycan array binding signal (z-score) [42]: -0.284
glycan array binding signal (z-score) [43]: -0.283
glycan array binding signal (z-score) [44]: -0.371
glycan array binding signal (z-score) [45]: -0.405
glycan array binding signal (z-score) [46]: -0.394
glycan array binding signal (z-score) [47]: -0.386
glycan array binding signal (z-score) [48]: -0.379
glycan array binding signal (z-score) [49]: -0.356
glycan array binding signal (z-score) [50]: -0.296
glycan array binding signal (z-score) [51]: -0.384
glycan array binding signal (z-score) [52]: -0.382
glycan array binding signal (z-score) [53]: -0.313
glycan array binding signal (z-score) [54]: -0.37
glycan array binding signal (z-score) [55]: -0.044
glycan array binding signal (z-score) [56]: -0.378
glycan array binding signal (z-score) [57]: -0.391
glycan array binding signal (z-score) [58]: -0.365
glycan array binding signal (z-score) [59]: -0.36
glycan array binding signal (z-score) [60]: -0.227
glycan array binding signal (z-score) [61]: -0.183
glycan array binding signal (z-score) [62]: -0.397
glycan array binding signal (z-score) [63]: -0.402
glycan array binding signal (z-score) [64]: -0.199
glycan array binding signal (z-score) [65]: -0.323
glycan array binding signal (z-score) [66]: -0.047
glycan array binding signal (z-score) [67]: -0.273
glycan array binding signal (z-score) [68]: -0.042
glycan array binding signal (z-score) [69]: -0.357
glycan array binding signal (z-score) [70]: -0.335
glycan array binding signal (z-score) [71]: -0.393
glycan array binding signal (z-score) [72]: -0.379
glycan array binding signal (z-score) [73]: -0.397
